Data published in paper PMC11053136 (Nature Communications, 2024).

Experiments:
[1] = hemolysis assay buffer

SMILES: COc1ccc(C=C2C(=O)NC(=O)NC2=O)cc1COc1ccc(F)cc1F [PB-1]
- Stability in DMSO: entirely stable
- Solubility in assay buffer (qualitative) [1]: without precipitation
